# This list was built around the results that the source calls inconclusive (neither active nor inactive); the mix of calls is not that of the screen. Where a call stands in place of a potency, no number is given. Potencies beside an inconclusive call are fits to weak or partial responses and may not hold up. The source made the active and inactive calls. The call rests on the fitted dose curve; in most records, active means well fitted inhibition curve with a large enough effect in the signal ratio in the repeat runs (not every such curve was filed as active); inconclusive means weak or mixed curves, or effect the other way; inactive means no such curve, though single readings can be large or run the other way; the % refers to the signal ratio.
# Molecular target: Estrogen receptor beta (Homo sapiens) (UniProt Q92731)
# UniProt Q92731, sequence (Q92731 whole entry, looked up): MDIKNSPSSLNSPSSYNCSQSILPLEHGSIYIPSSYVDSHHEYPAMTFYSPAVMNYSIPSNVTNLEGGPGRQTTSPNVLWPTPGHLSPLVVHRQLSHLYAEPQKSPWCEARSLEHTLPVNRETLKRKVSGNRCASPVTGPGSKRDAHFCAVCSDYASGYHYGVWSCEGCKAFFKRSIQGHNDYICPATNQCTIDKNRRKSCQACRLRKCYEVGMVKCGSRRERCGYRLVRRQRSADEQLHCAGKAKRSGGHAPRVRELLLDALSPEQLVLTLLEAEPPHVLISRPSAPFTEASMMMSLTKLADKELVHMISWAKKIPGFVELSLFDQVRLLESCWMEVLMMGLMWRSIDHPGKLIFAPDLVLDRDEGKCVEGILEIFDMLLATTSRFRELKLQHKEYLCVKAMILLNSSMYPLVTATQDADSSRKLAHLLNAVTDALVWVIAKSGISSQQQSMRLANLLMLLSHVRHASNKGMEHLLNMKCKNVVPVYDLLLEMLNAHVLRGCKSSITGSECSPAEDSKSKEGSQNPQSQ
# Assay: qHTS assay to identify small molecule antagonists of the estrogen receptor beta (ER-beta) signaling pathway (AID 1259378)
# Settings: ER-beta-UAS-bla HEK293T, beta-lactamase FRET ratio, 16 h; activity, negative = inhibition: at 92.4 µM (top of the series) unless noted
# Outline: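 Antagonist mode: compounds added to beta-lactamase reporter HEK293T ER-beta-UAS cells stimulated with E2 (1nM final), 16 hr at 37C. LiveBLAzer B/G FRET substrate, 2 hours room temperature, fluorescence read-out.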
# Potency means the concentration at half of the fitted maximal effect; tags describe the fitted curve by direction and shape or compound fluorescence and quenching.
Structure (SMILES),"activity, negative = inhibition",Potency
O=C(O)c1ccccc1C(=O)Nc1ccc(S(=O)(=O)Nc2nccs2)cc1,inconclusive: 14.9% [at 42.5 µM],–
C[C@@H](O)[C@H]1C(=O)N2C(C(=O)O)=C(S[C@@H]3CN[C@H](C(=O)N(C)C)C3)[C@H](C)[C@H]12,–,inactive
O=C(O)COCCN1CCN(C(c2ccccc2)c2ccc(Cl)cc2)CC1 (stereo not given),–,inactive
CCCCCCCCCCCCSC,–,inactive
NC1CCCCC1,inconclusive: 23.1%,–
O=C(c1ccccc1)c1ccc(O)cc1,inconclusive: -42.3%,–
CC(=O)C(=O)CC(C)C,inconclusive: -29.8%,–
CCCCN1CCCC[C@H]1C(=O)Nc1c(C)cccc1C,inconclusive: 19.1% [at 42.5 µM],–
CO[C@H]1O[C@H](CO)[C@@H](O)[C@H](O)[C@H]1O,–,inactive
N[C@@H](COP(=O)(O)O)C(=O)O,inactive: 18.6% [at 19 µM],–
Cc1cc(Cl)c(C)cc1Cl,–,inactive
CCCCCCCCCCCCCCC(=O)O,inconclusive: -32.7%,–
COc1cc(NS(=O)(=O)c2ccc(N)cc2)nc(OC)n1,inconclusive: 15.6% [at 42.5 µM],–
CC1(C)[C@@H]2CC[C@@]1(C)[C@H](O)C2,–,inactive
Oc1ccc2c(c1)-c1ccccc1C2,inconclusive: -45.2%,–
CC1(C)CC(O)CC(C)(C)N1,–,inactive
C=C1C2CCC(C2)C1(C)C (stereo not given),inconclusive: 23.7%,–
O=c1[nH]cnc2ccccc12,inconclusive: -46.4%,–
CC(C)c1ccc(C(=O)N=C(N)N)cc1S(C)(=O)=O,inconclusive: 10.6% [at 42.5 µM],–
C=CCn1c(=O)n(CC=C)c(=O)n(CC=C)c1=O,–,inactive

Structure (SMILES),"activity, negative = inhibition",Potency
CC1(C)C(=O)N(Br)C(=O)N1Cl,–,inactive
C=C(C)[C@H]1CC=C(C)C(=O)C1,–,inactive
CCCCCCCC(=O)OCCCCCC,inconclusive: 5.93%,–
CC(C)COC(=O)CC(C(=O)OCC(C)C)S(=O)(=O)O (stereo not given),–,inactive
C=C(C)[C@@H]1CCC2=CC(=O)C[C@@H](C)[C@]2(C)C1,–,inactive
CC(C)(C)C(=O)OCOC(=O)[C@@H]1N2C(=O)[C@@H](NC(=O)[C@H](N)c3ccccc3)[C@H]2SC1(C)C,–,inactive
CCOc1ccc(OCC)c(Cl)c1,–,inactive
CC(=O)OCC(=O)[C@@]1(O)CC[C@H]2[C@@H]3CCC4=CC(=O)CC[C@]4(C)[C@H]3C(=O)C[C@@]21C,–,inactive
O=C1CCCC(=O)C1,–,inactive
C/C=C(C)/C=C/C=C(C)C,–,inactive
CC(C)Cc1ccc(CC(=O)O)cc1,inconclusive: 8.97% [at 42.5 µM],–
O=C(O)c1ccc(O)cc1O,–,inactive
CCCCOC(=O)CC,–,inactive
CCOC(=O)CCCCCCCCC(=O)OCC,–,inactive
CN(C)C(=O)COC(=O)Cc1ccc(OC(=O)c2ccc(N=C(N)N)cc2)cc1,inconclusive: 20.6% [at 42.5 µM],–
O=C1NCCN1CCO,–,inactive
Nc1nc(Cl)nc2c1ncn2[C@@H]1O[C@H](CO)[C@@H](O)[C@@H]1F,–,"inconclusive: 10.6 µM [inhibitor, full curve]"
Cn1c([N+](=O)[O-])cnc1COC(N)=O,–,inactive
c1ccc(CC2=NCCN2)cc1,–,inconclusive: 33.5 µM [cytotoxic]
O=C(O)COc1ccc2ccccc2c1,–,inactive

# — PubChem BioAssay (Tox21)
